Measured values taken from article PMC12648101, “Targeting SARS-CoV-2 main protease for the discovery of a broad-spectrum COVID-19 inhibitor by intensive multi-tiered validation” (Acta Pharmaceutica Sinica. B, 2025).

Key:
[1] = biological target: T1, SARS-CoV-2 M^pro (Severe acute respiratory syndrome coronavirus 2, UniProt P0DTD1); assay: Spectral shift (SpS) measurements; format: binding; conditions: M^pro 100 nmol/L, Hill coefficient set to 1
[2] = biological target: T1, SARS-CoV-2 M^pro; assay: Thermal shift assay (TSA, nano-DSF); format: binding; conditions: M^pro 10 μmol/L, CHLA 500 μmol/L; M^pro alone 57.6 °C
[3] = biological target: T1, SARS-CoV-2 M^pro; assay: Dynamic light scattering (DLS) aggregation assay; conditions: M^pro 10 μmol/L, CHLA 500 μmol/L
[4] = biological target: T1, SARS-CoV-2 M^pro; assay: SPR assay (Biacore T200, steady state affinity); format: binding; conditions: steady state affinity model, 25 °C
[5] = biological target: T1, SARS-CoV-2 M^pro; assay: biochemical

O=C(O)C[C@@H]1C(=O)O[C@H]2[C@@H]3OC(=O)c4cc(O)c(O)c(O)c4-c4c(cc(O)c(O)c4O)C(=O)OC[C@H]2O[C@@H](OC(=O)c2cc(O)c(O)c(O)c2)[C@@H]3OC(=O)c2cc(O)c(O)c3c2[C@H]1[C@H](O)C(=O)O3 [CHLA, chebulagic acid] was tested, and the Kd [1] was 24.8 nM, the “melting point of SARS-CoV-2 M^pro in the M^pro–CHLA complex” value [2] was 80.0 °C and the “polydispersity index (PDI) of M^pro upon CHLA addition” value ([3]; M^pro alone 0.48) was 1.14. For the same molecule, the “cumulant radius of M^pro–CHLA complex” value ([3]; M^pro alone 3.8 nm) was 25.85 nm, the Kd [4] was 23.8 nM and the IC50 [5] was 2000 ± 160 nM.
